Results from the supplement of paper PMC6089552.
The campaign covered roughly 3,200 compounds. About 300 (9.4%) showed activity. This is a selection; strong and weak results do not stand in their true shares.

System: A673/TR/shEF
Assay: cell viability (LOESS-normalised, relative to median of negative controls) (log2 ratio); higher = more viable cells (less compound effect), active = hit call of the paper (over 3 MAD below the median)
Settings: treatment time: 72 h
Method in brief: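 A673/TR/shEF Ewing sarcoma cells were plated at 1,500 per well in 384-well plates and cultured with or without doxycycline, added 24 h before compounds, to induce EWS-FLI1 shRNA knockdown. Library compounds at two or more concentrations, alongside DMSO controls, were applied for three days. Cell viability was measured by CellTiter-Glo luminescence on an Envision reader. Readings were LOESS-corrected per plate, divided by the median of negative controls and log2-transformed, and hits were wells lying at least three median absolute deviations from the median of all screened wells.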

[1] = 0.25 µM, library screen: screen2, EWS-FLI1 expression: high (no doxycycline)
[2] = 0.25 µM, library screen: screen2, EWS-FLI1 expression: low (doxycycline-induced shRNA knockdown)
[3] = 2.5 µM, library screen: screen2, EWS-FLI1 expression: high (no doxycycline)
[4] = 2.5 µM, library screen: screen2, EWS-FLI1 expression: low (doxycycline-induced shRNA knockdown)
[5] = 0.25 µM, library screen: screen1, EWS-FLI1 expression: high (no doxycycline)
[6] = 0.25 µM, library screen: screen1, EWS-FLI1 expression: low (doxycycline-induced shRNA knockdown)
[7] = 2.5 µM, library screen: screen1, EWS-FLI1 expression: high (no doxycycline)
[8] = 2.5 µM, library screen: screen1, EWS-FLI1 expression: low (doxycycline-induced shRNA knockdown)
[9] = 0.103 µM, library screen: screen3, EWS-FLI1 expression: high (no doxycycline)
[10] = 0.103 µM, library screen: screen3, EWS-FLI1 expression: low (doxycycline-induced shRNA knockdown)
[11] = 0.308 µM, library screen: screen3, EWS-FLI1 expression: high (no doxycycline)
[12] = 0.308 µM, library screen: screen3, EWS-FLI1 expression: low (doxycycline-induced shRNA knockdown)
[13] = 0.926 µM, library screen: screen3, EWS-FLI1 expression: high (no doxycycline)
[14] = 0.926 µM, library screen: screen3, EWS-FLI1 expression: low (doxycycline-induced shRNA knockdown)
[15] = 2.8 µM, library screen: screen3, EWS-FLI1 expression: high (no doxycycline)
[16] = 2.8 µM, library screen: screen3, EWS-FLI1 expression: low (doxycycline-induced shRNA knockdown)
[17] = 8.3 µM, library screen: screen3, EWS-FLI1 expression: high (no doxycycline)
[18] = 8.3 µM, library screen: screen3, EWS-FLI1 expression: low (doxycycline-induced shRNA knockdown)
[19] = 25 µM, library screen: screen3, EWS-FLI1 expression: high (no doxycycline)
[20] = 25 µM, library screen: screen3, EWS-FLI1 expression: low (doxycycline-induced shRNA knockdown)
[21] = 0.025 µM, library screen: screen1, EWS-FLI1 expression: high (no doxycycline)
[22] = 0.025 µM, library screen: screen1, EWS-FLI1 expression: low (doxycycline-induced shRNA knockdown)
[23] = 25 µM, library screen: screen1, EWS-FLI1 expression: high (no doxycycline)
[24] = 25 µM, library screen: screen1, EWS-FLI1 expression: low (doxycycline-induced shRNA knockdown)

Measured: cell viability (log2)

CCCCC/C=C\C[C@H](O)/C=C/c1cccc(C[C@H](O)CCCCO)n1
inactive: [1] 0.123 | [2] 0.0776 | [3] 0.178 | [4] 0.128

COCC(=O)O[C@]1(CCN(C)CCCc2nc3ccccc3[nH]2)CCc2cc(F)ccc2[C@@H]1C(C)C
inactive: [1] 0.169 | [2] 0.137 | [3] 0.0621 | [4] 0.0892

O=C(O)CCCCC1CCSS1 (configuration not stated)
inactive: [5] 0.0761 | [6] 0.014 | [7] 0.102 | [8] 0.161

O=C(CSc1nnc(Cc2ccccc2)o1)c1ccc(Cl)cc1
inactive: [5] 0.0547 | [6] 0.0748 | [7] 0.133 | [8] -0.101

COc1cc(CN2CCN(Cc3cc(OC)c(OC)cc3OC)CC2)cc(OC)c1
inactive: [5] 0.195 | [6] 0.0735 | [7] 0.0606 | [8] -0.0102

COc1ccccc1N1CCN(CCCNc2cc(=O)n(C)c(=O)n2C)CC1
inactive: [5] 0.085 | [6] 0.152 | [1] 0.261 | [2] 0.134 | [7] 0.116 | [8] 0.121 | [3] 0.166 | [4] 0.1

COc1nc(N)nc2c1ncn2[C@@H]1O[C@H](CO)[C@@H](O)[C@@H]1O
inactive: [9] -0.0331 | [10] 0.0967 | [11] 0.111 | [12] 0.1 | [13] 0.0614 | [14] 0.133 | [15] 0.0686 | [16] 0.0525 | [17] 0.0218 | [18] 0.0206 | [19] 0.0232 | [20] 0.121

O=C(CCCN1CCC(O)(c2cccc(C(F)(F)F)c2)CC1)c1ccc(F)cc1
inactive: [1] 0.129 | [2] 0.074 | [3] 0.0781 | [4] 0.025

CN(C)CCCn1cc(C2=C(c3c[nH]c4ccccc34)C(=O)NC2=O)c2ccccc21
0.291: [8]
active: [7] -0.136 | [23] -0.422
inactive: [21] 0.176 | [22] 0.147 | [5] 0.197 | [6] 0.193 | [24] 0.0609

OC[C@H]1O[C@@](CO)(O[C@H]2O[C@H](CO)[C@@H](O)[C@H](O)[C@H]2O)[C@@H](O[C@H]2O[C@H](CO)[C@@H](O)[C@H](O)[C@H]2O)[C@@H]1O
inactive: [5] 0.0123 | [6] 0.0415 | [7] 0.0346 | [8] 0.126

CC(=O)Oc1cc2c(s1)CCN(C(C(=O)C1CC1)c1ccccc1F)C2 (configuration not stated)
inactive: [9] 0.0815 | [10] 0.132 | [11] 0.116 | [12] 0.071 | [13] 0.0574 | [14] 0.0515 | [15] 0.108 | [16] 0.106 | [17] 0.0209 | [18] 0.0103 | [19] 0.0515 | [20] 0.0692

COc1c2c(nc3ccccc13)OC(C(C)(O)CO)C2 (configuration not stated)
inactive: [1] 0.196 | [2] 0.114 | [3] 0.0978 | [4] 0.104

CC(C)C(=O)Nc1ccc([N+](=O)[O-])c(C(F)(F)F)c1
inactive: [5] 0.179 | [6] 0.0106 | [1] 0.112 | [2] 0.0436 | [7] 0.139 | [8] -0.0121 | [3] 0.0619 | [4] 0.0716

COc1c(C=O)c(O)cc2c1C(=O)c1ccccc1C2=O
inactive: [21] 0.0865 | [22] 0.0031 | [5] 0.118 | [6] -0.13 | [7] 0.0699 | [8] -0.209 | [23] 0.0121 | [24] -0.781

CC1(C)CCC2=C(O1)c1ccccc1C(=O)C2=O
inactive: [1] 0.122 | [2] 0.0711 | [3] 0.0799 | [4] 0.0776

CCOC(=O)C1=C(C)N=C2SC(C)C(=O)N2C1c1ccc(OC)cc1 (configuration not stated)
inactive: [5] 0.148 | [6] 0.0319 | [7] 0.107 | [8] 0.0438

CC(=O)OCC[N+](C)(C)C
inactive: [5] 0.108 | [6] 0.145 | [7] 0.235 | [8] 0.234

CC(=O)O[C@@H]1CC2C(C)(C)C(=O)CC[C@]2(C)C2CC[C@]3(C)C(=CC(=O)O[C@H]3c3ccoc3)[C@@]21C (some centres not stated)
inactive: [5] 0.0774 | [6] 0.142 | [7] 0.182 | [8] 0.164

CC(=O)O[C@H]1C[C@@H](OC(C)=O)C(C)(C)C2C[C@@H](OC(C)=O)[C@@]3(C)C4=CC(=O)OC(=O)[C@]4(C)CCC3[C@]21C (some centres not stated)
inactive: [5] 0.0349 | [6] 0.118 | [7] 0.174 | [8] 0.189

N[C@@H](CSCCCO)C(=O)O
inactive: [9] 0.115 | [10] -0.0276 | [11] 0.135 | [12] 0.0612 | [13] 0.036 | [14] 0.1 | [15] 0.152 | [16] 0.0682 | [17] 0.103 | [18] 0.0755 | [19] 0.134 | [20] 0.135

O=C(O)/C=C/c1cnc[nH]1
inactive: [1] 0.168 | [2] 0.0645 | [3] -0.0529 | [4] 0.0532

C[C@H](CCC(=O)O)[C@H]1CC[C@H]2[C@@H]3CC[C@@H]4C[C@H](O)CC[C@]4(C)[C@H]3CC[C@]12C
inactive: [5] 0.0214 | [6] -0.00846 | [7] 0.155 | [8] 0.115

CC(=O)SCC(Cc1ccccc1)C(=O)NCC(=O)OCc1ccccc1 (configuration not stated)
inactive: [9] 0.0735 | [10] 0.0424 | [11] 0.0614 | [12] 0.104 | [13] 0.103 | [14] 0.0998 | [15] 0.0849 | [16] 0.0713 | [17] 0.0257 | [18] 0.0151 | [19] 0.132 | [20] 0.14

O=C(O)CCCC[C@@H]1SC[C@@H]2NC(=O)N[C@@H]21
inactive: [5] 0.0947 | [6] 0.066 | [7] 0.152 | [8] 0.016

CCOC(=O)Nc1ccc(NCc2ccc(F)cc2)nc1N
inactive: [1] 0.199 | [2] 0.0446 | [3] 0.207 | [4] -0.0502

CC1COc2c(N3CCN(C)CC3)c(F)cc3c(=O)c(C(=O)O)cn1c23 (configuration not stated)
inactive: [9] -0.0195 | [10] 0.125 | [5] 0.146 | [6] 0.0528 | [1] 0.159 | [2] 0.134 | [11] 0.0326 | [12] 0.0583 | [13] 0.112 | [14] 0.0335 | [7] 0.141 | [8] 0.0922 | [3] 0.14 | [4] 0.026 | [15] 0.0978 | [16] 0.142 | [17] 0.131 | [18] 0.0363 | [19] 0.0764 | [20] 0.0436

CN(C/C=C/C#CC(C)(C)C)Cc1cccc2ccccc12
inactive: [9] 0.0931 | [10] 0.0321 | [11] 0.121 | [12] 0.0707 | [13] 0.0937 | [14] 0.0724 | [15] 0.0718 | [16] 0.0676 | [17] 0.087 | [18] 0.0453 | [19] 0.0712 | [20] 0.083

Fc1ccc([C@@H]2CCNC[C@H]2COc2ccc3c(c2)OCO3)cc1
inactive: [5] 0.145 | [6] 0.103 | [7] 0.0979 | [8] 0.0302

N.N.O=C(O)C1(C(=O)O)CCC1.[Pt]
inactive: 0.025 µM, library screen: screen2, EWS-FLI1 expression: high (no doxycycline) 0.126 | 0.025 µM, library screen: screen2, EWS-FLI1 expression: low (doxycycline-induced shRNA knockdown) 0.0588 | [9] 0.0499 | [10] 0.0607 | [5] 0.0824 | [6] 0.145 | [1] 0.156 | [2] 0.113 | [11] 0.115 | [12] 0.0467 | [13] 0.0942 | [14] 0.0721 | [7] 0.157 | [8] 0.15 | [3] 0.122 | [4] 0.131 | [15] 0.0295 | [16] 0.0687 | [17] 0.0127 | [18] 0.0866 | 25 µM, library screen: screen2, EWS-FLI1 expression: high (no doxycycline) -0.0691 | 25 µM, library screen: screen2, EWS-FLI1 expression: low (doxycycline-induced shRNA knockdown) 0.0246 | [19] -0.00625 | [20] -0.0105

CN(C)CCCN1c2ccccc2CCc2ccccc21
inactive: [5] 0.0475 | [6] -0.0015 | [1] 0.172 | [2] 0.114 | [7] 0.11 | [8] 0.0877 | [3] 0.106 | [4] 0.0621

C[C@H]1COc2c(N3CCN(C)CC3)c(F)cc3c(=O)c(C(=O)O)cn1c23
inactive: [9] 0.206 | [10] 0.0437 | [5] 0.0988 | [6] 0.0882 | [11] 0.127 | [12] 0.148 | [13] 0.119 | [14] 0.164 | [7] 0.147 | [8] 0.106 | [15] 0.0698 | [16] 0.187 | [17] 0.139 | [18] 0.0478 | [19] 0.0912 | [20] 0.153

NC(CO)C(=O)NNCc1ccc(O)c(O)c1O (configuration not stated)
inactive: [9] 0.0508 | [10] 0.0252 | [5] 0.0934 | [6] 0.0515 | [1] 0.129 | [2] 0.0766 | [11] 0.178 | [12] 0.129 | [13] 0.092 | [14] 0.101 | [7] 0.121 | [8] 0.123 | [3] 0.0791 | [4] 0.129 | [15] 0.149 | [16] 0.0604 | [17] 0.0495 | [18] 0.0533 | [19] 0.0796 | [20] 0.0404
